In patent US8067379B2, “Sulfur compounds as inhibitors of hepatitis C virus NS3 serine protease” (Schering Corporation, priority 2004, dated 2011):

What follows are molecules tested against Recombinant heterodimeric HCV NS3/NS4A protease (strain 1a) (Hepatitis C virus genotype 1a, UniProt P27958) (assay: Spectrophotometric assay for HCV serine protease inhibitory activity (chromogenic ester substrates)). Conditions: Table 3A; cells that print a number instead of a class symbol; read-out: Ki* Range.
Assay type: biochemical

Structure (SMILES) | Ki [nM]
C=CCNC(=O)C(=O)C(CCCC)NC(=O)[C@@H]1[C@@H]2[C@H](CN1C(=O)[C@@H](NC(=O)NC1(C3CCCS3(=O)=O)CCCCC1)C(C)(C)C)C2(C)C (stereo partly drawn) [Compound 611] | 3.8

Same assay, conditions: Table 3A; class symbols; read-out: Ki* Range

Structure (SMILES) | Ki [nM]
C=CCNC(=O)C(=O)C(CC1CC1)NC(=O)[C@@H]1[C@@H]2[C@H](CN1C(=O)[C@@H](NC(=O)NC1(CS(=O)(=O)C(C)(C)C)CC3CCC1C3)C1(C)CCCCC1)C2(C)C (stereo partly drawn) [Compound 591] | < 75
C=CCNC(=O)C(=O)C(CC1CC1)NC(=O)[C@@H]1[C@@H]2[C@H](CN1C(=O)[C@@H](NC(=O)NC1(CS(=O)(=O)C(C)(C)C)CC3CCC1C3)C(C)(C)C)C2(C)C (stereo partly drawn) [Compound 592] | < 75
CCCNC(=O)C(=O)C(CCC)NC(=O)[C@@H]1[C@@H]2[C@H](CN1C(=O)[C@@H](NC(=O)NC1(CS(=O)(=O)C(C)(C)C)CCCCC1)C(C)(C)C)C2(Cl)Cl (stereo partly drawn) [Compound 593] | < 75
CC(C)(C)[C@H](NC(=O)NC1(CS(=O)(=O)C(C)(C)C)CCCCC1)C(=O)N1C[C@H]2[C@@H]([C@H]1C(=O)NC(CC1CC1)C(=O)C(=O)NC1CC1)C2(Cl)Cl (stereo partly drawn) [Compound 594] | < 75
CCCCC(NC(=O)[C@@H]1[C@@H]2[C@H](CN1C(=O)[C@@H](NC(=O)NC1(CS(=O)(=O)C(C)(C)C)CCCCC1)C(C)(C)C)C2(Cl)Cl)C(=O)C(=O)NCCC (stereo partly drawn) [Compound 595] | < 75
CC1([C@H](NC(=O)NC2(CS(=O)(=O)C(C)(C)C)CCCCC2)C(=O)N2C[C@H]3[C@@H]([C@H]2C(=O)NC(CC2CC2)C(=O)C(=O)NCc2cccs2)C3(C)C)CCCCC1 (stereo partly drawn) [Compound 596] | < 75
C=CCNC(=O)C(=O)C(CC1CC1)NC(=O)[C@@H]1[C@@H]2[C@H](CN1C(=O)[C@@H](NC(=O)NC1(C3CCCS3(=O)=O)CCCCC1)C1(C)CCCCC1)C2(C)C (stereo partly drawn) [Compound 597] | < 75
CC1([C@H](NC(=O)NC2(CS(=O)(=O)C(C)(C)C)CCCCC2)C(=O)N2C[C@H]3[C@@H]([C@H]2C(=O)NC(CCC2CC2)C(=O)C(=O)NC2CC2)C3(C)C)CCCC1 (stereo partly drawn) [Compound 598] | < 75
CCCC(NC(=O)[C@@H]1[C@@H]2[C@H](CN1C(=O)[C@@H](NC(=O)NC1(CS(=O)(=O)C(C)(C)C)CCCCC1)C1(C)CCCCC1)C2(C)C)C(=O)C(=O)NCc1nccs1 (stereo partly drawn) [Compound 599] | < 75
CCCCC(NC(=O)[C@@H]1[C@@H]2[C@H](CN1C(=O)[C@@H](NC(=O)NC1(CS(=O)(=O)C(C)(C)C)CCCCC1)C1(C)CCCCC1)C2(C)C)C(=O)C(=O)NCc1cccs1 (stereo partly drawn) [Compound 600] | < 75
CCCCC(NC(=O)[C@@H]1[C@@H]2[C@H](CN1C(=O)[C@@H](NC(=O)NC1(CS(=O)(=O)C(C)(C)C)CCCCC1)C1(C)CCCCC1)C2(C)C)C(=O)C(=O)NCc1nccs1 (stereo partly drawn) [Compound 601] | < 75
CC1(C)[C@@H]2[C@@H](C(=O)NC(CCCF)C(=O)C(=O)NC3CC3)N(C(=O)[C@@H](NC(=O)NC3(CS(=O)(=O)C(C)(C)C)CCCCC3)C3CCCCC3)C[C@@H]21 (stereo partly drawn) [Compound 602] | < 75
CC(C)(C)[C@H](NC(=O)NC1(CS(=O)(=O)C(C)(C)C)CCCCC1)C(=O)N1C[C@H]2[C@@H]([C@H]1C(=O)NC(CCCF)C(=O)C(=O)NC1CC1)C2(C)C (stereo partly drawn) [Compound 603] | < 75
CC1([C@H](NC(=O)NC2(CS(=O)(=O)C(C)(C)C)CCCCC2)C(=O)N2C[C@H]3[C@@H]([C@H]2C(=O)NC(CCC2CC2)C(=O)C(=O)NCc2nccs2)C3(C)C)CCCCC1 (stereo partly drawn) [Compound 604] | < 75
C=CCNC(=O)C(=O)C(CCC1CC1)NC(=O)[C@@H]1[C@@H]2[C@H](CN1C(=O)[C@@H](NC(=O)NC1(CS(=O)(=O)C(C)(C)C)CCCCC1)C1(C)CCCC1)C2(C)C (stereo partly drawn) [Compound 605] | < 75
C=CCNC(=O)C(=O)C(CCC)NC(=O)[C@@H]1CC2(CN1C(=O)[C@@H](NC(=O)NC1(CS(=O)(=O)C(C)(C)C)CCCCC1)C(C)(C)C)SCCS2 (stereo partly drawn) [Compound 606] | < 75

Structure (SMILES) | Ki [nM]
CC1([C@H](NC(=O)NC2(C3CCCS3(=O)=O)CCCCC2)C(=O)N2C[C@H]3[C@@H]([C@H]2C(=O)NC(CC2CC2)C(=O)C(=O)NC2CC2)C3(C)C)CCCCC1 (stereo partly drawn) [Compound 607] | < 75
C=CCNC(=O)C(=O)C(CC1CC1)NC(=O)[C@@H]1[C@@H]2[C@H](CN1C(=O)[C@@H](NC(=O)NC1(CS(=O)(=O)C(C)(C)C)CCCCC1)C(C)(C)SC)C2(C)C (stereo partly drawn) [Compound 609] | < 75
C=CCNC(=O)C(=O)C(CCCC)NC(=O)[C@@H]1[C@@H]2[C@H](CN1C(=O)[C@@H](NC(=O)NC1(C3CCCS3(=O)=O)CCCCC1)C1(C)CCCCC1)C2(C)C (stereo partly drawn) [Compound 610] | < 75
C=CCNC(=O)C(=O)C(CCC)NC(=O)[C@@H]1[C@@H]2[C@H](CN1C(=O)[C@@H](NC(=O)NC1(C3CCCS3(=O)=O)CCCCC1)C1(C)CCCCC1)C2(C)C (stereo partly drawn) [Compound 612] | < 75
C=CCNC(=O)C(=O)C(CCC)NC(=O)[C@@H]1CC2(CN1C(=O)[C@@H](NC(=O)NC1(CS(=O)(=O)C(C)(C)C)CCCCC1)C1(C)CCCCC1)SCCS2 (stereo partly drawn) [Compound 613] | < 75
C=CCNC(=O)C(=O)C(CC1CC1)NC(=O)[C@@H]1[C@@H]2[C@H](CN1C(=O)[C@@H](NC(=O)NC1(CS(=O)(=O)C(C)(C)C)CCCCC1)C(C)(C)S(C)(=O)=O)C2(C)C (stereo partly drawn) [Compound 614] | 75 to 250
CCCC(NC(=O)[C@@H]1[C@@H]2[C@H](CN1C(=O)[C@@H](NC(=O)NC1(C3CCCS3(=O)=O)CCCCC1)C1(C)CCCCC1)C2(C)C)C(=O)C(=O)NC1CC1 (stereo partly drawn) [Compound 615] | < 75
C=CCNC(=O)C(=O)C(CC1CC1)NC(=O)[C@@H]1[C@@H]2[C@H](CN1C(=O)[C@@H](NC(=O)NC1(C3CCCS3(=O)=O)CCCCC1)C(C)(C)C)C2(C)C (stereo partly drawn) [Compound 616] | < 75
CCCC(NC(=O)[C@@H]1[C@@H]2[C@H](CN1C(=O)[C@@H](NC(=O)NC1(C3CCCS3(=O)=O)CCCCC1)C(C)(C)C)C2(C)C)C(=O)C(=O)NC1CC1 (stereo partly drawn) [Compound 617] | < 75
C=CCNC(=O)C(=O)C(CCC)NC(=O)[C@@H]1[C@@H]2[C@H](CN1C(=O)[C@@H](NC(=O)NC1(C3CCCS3(=O)=O)CCCCC1)C(C)(C)C)C2(C)C (stereo partly drawn) [Compound 618] | < 75
C=CCNC(=O)C(=O)C(CCC1CC1)NC(=O)[C@@H]1[C@@H]2[C@H](CN1C(=O)[C@@H](NC(=O)NC1(C3CCCS3(=O)=O)CCCCC1)C(C)(C)C)C2(C)C (stereo partly drawn) [Compound 619] | < 75
CC(C)(C)[C@H](NC(=O)NC1(C2CCCS2(=O)=O)CCCCC1)C(=O)N1C[C@H]2[C@@H]([C@H]1C(=O)NC(CC1CC1)C(=O)C(=O)NC1CC1)C2(C)C (stereo partly drawn) [Compound 620] | < 75
C=CCNC(=O)C(=O)C(CCC1CC1)NC(=O)[C@@H]1[C@@H]2[C@H](CN1C(=O)[C@@H](NC(=O)NC1(C3CCCS3(=O)=O)CCCCC1)C1(C)CCCCC1)C2(C)C (stereo partly drawn) [Compound 623] | < 75
CC1([C@H](NC(=O)NC2(CS(=O)(=O)C(C)(C)C)CCCCC2)C(=O)N2C[C@H]3[C@@H]([C@H]2C(=O)NC(CC2CC2)C(=O)C(=O)NC2CC2)C3(C)C)Cc2ccccc2C1 (stereo partly drawn) [Compound 624] | 75 to 250
C=CCNC(=O)C(=O)C(CCCC)NC(=O)[C@@H]1[C@@H]2[C@H](CN1C(=O)[C@@H](NC(=O)NC1(CS(=O)(=O)C(C)(C)C)CCCCC1)C1(C)Cc3ccccc3C1)C2(C)C (stereo partly drawn) [Compound 625] | < 75
C=CCNC(=O)C(=O)C(CC1CC1)NC(=O)[C@@H]1[C@@H]2[C@H](CN1C(=O)[C@@H](NC(=O)NC1(CS(=O)(=O)C(C)(C)C)CCCCC1)C1(C)Cc3ccccc3C1)C2(C)C (stereo partly drawn) [Compound 626] | < 75
